# Results as given in the supplement of paper PMC8728848.
# Some of the results follow.
# B1: CCL2 (Coprinopsis cinerea), B3GA02 (protein)
# chain: MDSPAVTLSAGNYIIYNRVLSPRGEKLALTYPGRQRTPVTVSPLDGSSEQAWILRSYDSNSNTWTISPVGSPNSQIGWGAGNVPVVLPPNNYVWTLTLTSGGYNIQDGKRTVSWSLNNATAGEEVSIGADATFSGRWVIEKV
# Columns and labels:
# Assay in all cases: glycan array binding signal (z-score within array); higher = stronger binding
# Conditions in all cases: glycan notation: IUPAC condensed, linker removed
# [1] = target: Fuc(a1-3)[Gal(b1-4)]Glc6S
# In short: (§1)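 Glycan array data came from 3228 arrays in the Consortium for Functional Glycomics database, and only arrays with an available protein sequence were kept. Glycan names were put into IUPAC-condensed notation, and columns mapping to the same glycan were averaged. The binding signal is a within-array Z-score, averaged across arrays of one protein sequence run at different concentrations or buffers and across linkers. A negative Z-score can be read as non-binding.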
# [2] = target: Fuc(a1-3)[Gal(b1-4)]GlcNAc
# In short: as §1
# [3] = target: Fuc(a1-3)[Gal(b1-4)]GlcNAc(b1-2)Man(a1-3)[Fuc(a1-3)[Gal(b1-4)]GlcNAc(b1-2)Man(a1-6)]Man(b1-4)GlcNAc(b1-4)GlcNAc
# In short: as §1
# [4] = target: Fuc(a1-3)[Gal(b1-4)]GlcNAc(b1-2)Man(a1-6)[Gal(b1-4)GlcNAc(b1-2)Man(a1-3)]Man(b1-4)GlcNAc(b1-4)GlcNAc
# In short: as §1
# [5] = target: Fuc(a1-3)[Gal(b1-4)]GlcNAc(b1-3)Gal(b1-3)[Fuc(a1-4)]GlcNAc
# In short: as §1
# [6] = target: Fuc(a1-3)[Gal(b1-4)]GlcNAc(b1-4)Gal(b1-4)[Fuc(a1-3)]GlcNAc
# In short: as §1
# [7] = target: Fuc(a1-3)[Gal(b1-4)]GlcNAc(b1-4)Gal(b1-4)[Fuc(a1-3)]GlcNAc(b1-4)Gal(b1-4)[Fuc(a1-3)]GlcNAc
# In short: as §1
# [8] = target: Fuc(a1-3)[Gal(b1-4)]GlcNAc6S
# In short: as §1
# [9] = target: Fuc(a1-3)[Gal3S(b1-4)]Glc6S
# In short: as §1
# [10] = target: Fuc(a1-3)[Gal3S(b1-4)]GlcNAc
# In short: as §1
# [11] = target: Fuc(a1-3)[Gal3S(b1-4)]GlcNAc6S
# In short: as §1
# [12] = target: Fuc(a1-3)[GalNAc(b1-4)]GlcNAc
# In short: as §1
# [13] = target: Fuc(a1-4)GlcNAc
# In short: as §1
# [14] = target: Fuc(b1-3)GlcNAc
# In short: as §1
# [15] = target: Gal(a1-2)Gal
# In short: as §1
# [16] = target: Gal(a1-3)Gal
# In short: as §1
# [17] = target: Gal(a1-3)Gal(b1-3)GlcNAc
# In short: as §1
# [18] = target: Gal(a1-3)Gal(b1-4)Glc
# In short: as §1
# [19] = target: Gal(a1-3)Gal(b1-4)GlcNAc
# In short: as §1
# [20] = target: Gal(a1-3)Gal(b1-4)[Fuc(a1-3)]GlcNAc
# In short: as §1
# [21] = target: Gal(a1-3)Gal(b1-4)[Fuc(a1-3)]GlcNAc(b1-2)Man(a1-3)[Gal(a1-3)Gal(b1-4)[Fuc(a1-3)]GlcNAc(b1-2)Man(a1-6)]Man(b1-4)GlcNAc(b1-4)GlcNAc
# In short: as §1
# [22] = target: Gal(a1-3)GalNAc
# In short: as §1
# [23] = target: Gal(a1-3)[Gal(a1-4)]Gal(b1-4)GlcNAc
# In short: as §1
# [24] = target: Gal(a1-4)Gal(b1-4)Glc
# In short: as §1
# [25] = target: Gal(a1-4)Gal(b1-4)GlcNAc
# In short: as §1
# [26] = target: Gal(a1-4)Gal(b1-4)GlcNAc(b1-3)Gal(b1-4)Glc
# In short: as §1
# [27] = target: Gal(a1-4)GlcNAc
# In short: as §1
# [28] = target: Gal(a1-6)Glc
# In short: as §1
# [29] = target: Gal(b1-2)Gal
# In short: as §1
# [30] = target: Gal(b1-3)Gal
# In short: as §1
# [31] = target: Gal(b1-3)Gal(b1-4)GlcNAc
# In short: as §1
# [32] = target: Gal(b1-3)Gal(b1-4)GlcNAc(b1-2)Man(a1-3)[Gal(b1-3)Gal(b1-4)GlcNAc(b1-2)Man(a1-6)]Man(b1-4)GlcNAc(b1-4)GlcNAc
# In short: as §1
# [33] = target: Gal(b1-3)GalNAc
# In short: as §1
# [34] = target: Gal(b1-3)GalNAc(a1-3)[Fuc(a1-2)]Gal(b1-4)Glc
# In short: as §1
# [35] = target: Gal(b1-3)GalNAc(a1-3)[Fuc(a1-2)]Gal(b1-4)GlcNAc
# In short: as §1
# [36] = target: Gal(b1-3)GalNAc(b1-3)Gal(a1-4)Gal(b1-4)Glc
# In short: as §1
# [37] = target: Gal(b1-3)GalNAc(b1-4)Gal(b1-4)Glc
# In short: as §1
# [38] = target: Gal(b1-3)GalNAc(b1-4)[Neu5Ac(a2-3)]Gal(b1-4)Glc
# In short: as §1
# [39] = target: Gal(b1-3)GlcNAc
# In short: as §1
# [40] = target: Gal(b1-3)GlcNAc(b1-2)Man(a1-3)[Gal(b1-3)GlcNAc(b1-2)Man(a1-6)]Man(b1-4)GlcNAc(b1-4)GlcNAc
# In short: as §1
# [41] = target: Gal(b1-3)GlcNAc(b1-2)Man(a1-3)[Gal(b1-3)GlcNAc(b1-2)Man(a1-6)]Man(b1-4)GlcNAc(b1-4)[Fuc(a1-6)]GlcNAc
# In short: as §1
# [42] = target: Gal(b1-3)GlcNAc(b1-3)Gal(b1-3)GlcNAc
# In short: as §1
# [43] = target: Gal(b1-3)GlcNAc(b1-3)Gal(b1-4)Glc
# In short: as §1
# [44] = target: Gal(b1-3)GlcNAc(b1-3)Gal(b1-4)GlcNAc
# In short: as §1
# [45] = target: Gal(b1-3)[Fuc(a1-4)]GlcNAc
# In short: as §1
binder,measurement,setting,value
B1,glycan array binding signal (z-score),[1],-0.29
same,glycan array binding signal (z-score),[2],0.752
same,glycan array binding signal (z-score),[3],3.53
same,glycan array binding signal (z-score),[4],-0.299
same,glycan array binding signal (z-score),[5],2.08
same,glycan array binding signal (z-score),[6],4.28
same,glycan array binding signal (z-score),[7],3.56
same,glycan array binding signal (z-score),[8],2.61
same,glycan array binding signal (z-score),[9],-0.182
same,glycan array binding signal (z-score),[10],-0.279
same,glycan array binding signal (z-score),[11],-0.226
same,glycan array binding signal (z-score),[12],4.84
same,glycan array binding signal (z-score),[13],-0.281
same,glycan array binding signal (z-score),[14],-0.267
same,glycan array binding signal (z-score),[15],-0.29
same,glycan array binding signal (z-score),[16],-0.301
same,glycan array binding signal (z-score),[17],-0.293
same,glycan array binding signal (z-score),[18],-0.298
same,glycan array binding signal (z-score),[19],-0.284
same,glycan array binding signal (z-score),[20],1.05
same,glycan array binding signal (z-score),[21],4.37
same,glycan array binding signal (z-score),[22],-0.251
same,glycan array binding signal (z-score),[23],-0.267
same,glycan array binding signal (z-score),[24],-0.289
same,glycan array binding signal (z-score),[25],-0.283
same,glycan array binding signal (z-score),[26],-0.271
same,glycan array binding signal (z-score),[27],-0.227
same,glycan array binding signal (z-score),[28],-0.275
same,glycan array binding signal (z-score),[29],-0.291
same,glycan array binding signal (z-score),[30],-0.291
same,glycan array binding signal (z-score),[31],-0.29
same,glycan array binding signal (z-score),[32],-0.278
same,glycan array binding signal (z-score),[33],-0.286
same,glycan array binding signal (z-score),[34],-0.263
same,glycan array binding signal (z-score),[35],-0.26
same,glycan array binding signal (z-score),[36],-0.285
same,glycan array binding signal (z-score),[37],-0.293
same,glycan array binding signal (z-score),[38],-0.297
same,glycan array binding signal (z-score),[39],-0.289
same,glycan array binding signal (z-score),[40],-0.247
same,glycan array binding signal (z-score),[41],-0.283
same,glycan array binding signal (z-score),[42],-0.283
same,glycan array binding signal (z-score),[43],-0.281
same,glycan array binding signal (z-score),[44],-0.29
same,glycan array binding signal (z-score),[45],-0.291
